Data: the RNAGym collection of RNA variant scans (doi:10.1093/nar/gkz1192)
The source gives no read counts; variants with many changes may rest on few reads.

B1: CPEB3 Ribozyme (parent)
chain: UAACAGGGGGCCACAGCAGAAGCGUUCACGUCGCAGCCCCUGUCAGAUUCUGGUGAAUCUGCGAAUUCUGCUGUAUAUCUC

Variants of: B1
Test: self-cleavage, relative activity (ratio to wild type); higher = more cleavage; in vitro, sequencing
In short: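 Relative activity compares each variant's cleaved/total read fraction with that of the unmutated ribozyme. To get these fractions, barcoded CPEB3 ribozyme libraries from rounds of error-prone PCR were transcribed with T7 RNA polymerase for 5 hours at 37°C and then given 15 min of DNase I treatment before EDTA was added. The RNAs were reverse transcribed with template switching and sequenced on Illumina, and DNA sequencing linked barcodes to variants. A minimum of 5 reads applied, and three batches were averaged.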
Variant UGACAGGGGGCCACGGCAGUAGCGUUCACGUCGCAGCCCCUGUCUGAUUCUGGUGAGUCCGCGAAUUCUGCUGUAUAUCUC [A2G A15G A20U A45U A57G U60C] has a self-cleavage of 0.08.
For UGACAGGGGGCCACGGCAGAAGCGUUCACGUCGAAGCCCCUGUCAGAUUCUGGUGAAUCUGCGAAUUCUGCUGUAUAUCUC [A2G A15G C34A], the self-cleavage was 0.14.
In the case of UGACAGGGGGCCACGGCAGAAGCGUUCACGUCGCAGCCCCUGUAAGAUUCUGGUGAAUCUGCGAAUUCUGCUGUAUACCUC [A2G A15G C44A U78C], the self-cleavage is reported as 0.23.
UGACAGGGGGCCACGGCAGAAACGUUCACGUUGCAGCCCCUGUCGGAUUCUGGUGAAUCUGCGGAUUCUGCCGUAUAUCUC [A2G A15G G22A C32U A45G A64G U72C] gave a self-cleavage of 0.13.
Work on UGACAGGGGGCCACGGCAGAAGCGAUCACGUCGCAGCCCCUGUCAGAUUCUAGUGAAUCUGCGAAUUCUGCUGUAUAUCUC [A2G A15G U25A G52A] yielded a self-cleavage of 0.15.
For UGACAGGGGGCCACGGCAGAAGCGCUCACGUCGCAGCCCCUGUCGGAUUCUGGUGGAUCUGCGAAUUCUGCUGUAUAUCUC [A2G A15G U25C A45G A56G], the self-cleavage was 0.03.
UGACAGGGGGCCACGGCAGAAGCGUACACGUCGCGGCCCCCGUCAGAUACUGGUGAAUCUGCGAAUUCUGCCGUAUAUCUC [A2G A15G U26A A35G U41C U49A U72C] gave a self-cleavage of 0.21.
For UGACAGGGGGCCACGGCAGAAGCGUUCACGUCGCAGCCCCUGCCAGAUUCUGGCGAAUCUGCGAAUUCAGCUGUAUAUCUC [A2G A15G U43C U54C U69A], the self-cleavage was 0.12.
UGACAGGGGGCCACGGCAGAAGCGUUCACGUCGCAGCCCCUGUCAGAUACUGGUGAAUCUGCGAAUUCUGCUGUAUAUCUC [A2G A15G U49A] showed a self-cleavage of 0.15.
With UGACAGGGGGCCACGGCAGAAGCGUUCACGUCGCAGCCCCUGUCAGAUUCUGGUGAAUCCGCGAAUUCUGCUGUAUAUCUC [A2G A15G U60C] the self-cleavage was 0.16.
Variant UGACAGGGGGCCACUGCAGGAGCGUUCACGUCGCAGCCCCUGUCAGAUUCCGGUGAAUCCGCGAAUUCUGCUGUAUAUCUC [A2G A15U A20G U51C U60C] has a self-cleavage of 0.25.
Work on UGACAGGGGGCCACUGCAGAAGCGUUCACGUCGCAGCCCCUGUCUGAUUCUGGUGAAUCUGCGAGUUCUGCUGUAAAUCUC [A2G A15U A45U A65G U76A] yielded a self-cleavage of 0.09.
Work on UGACAGGGGGCCACUGCAGAAGCGUUCACGUCGCAGCCCCUGUCAGGUUCUGGUGGAUCUGCGAAUUCUGCUGAAUAUCUC [A2G A15U A47G A56G U74A] yielded a self-cleavage of 0.38.
UGACAGGGGGCCACUGCAGAAGCGUUCACGUCGGAGCCCCAGUCAGAUCCUGGUGAAUCUGCGAAUUCUGCUGUAUAUCUC [A2G A15U C34G U41A U49C] gave a self-cleavage of 0.04.
UGACAGGGGGCCACUGCAGAAUCGUUCACGACGCAGCCCCUGUUAGAUUCUGGUGAAUCUGCGAACUCUGCUGUAUAUCUC [A2G A15U G22U U31A C44U U66C] showed a self-cleavage of 0.07.
UGACAGGGGGCCACUGCAGAAGCGUCCACGUUGCAGCCCCUGUCAGAUUCUGGUGAAUCUGCGAAUUCUGCUGUAUAUCUC [A2G A15U U26C C32U] showed a self-cleavage of 0.25.
UGACAGGGGGCCACAGCCGAAGCGUUCACGUCACAGCCCCUGUCUGAUUCUGGUGAAUCUGCGAAUUCUGCCGAAUAUCUC [A2G A18C G33A A45U U72C U74A] showed a self-cleavage of 0.2.
Work on UGACAGGGGGCCACAGCGGAGGCGUUCACGUCGCAGCCCCUGUCAGAUUCUGGUGAAUCUGCGGAUUCUGCUGCAUAUCUC [A2G A18G A21G A64G U74C] yielded a self-cleavage of 0.51.
UGACAGGGGGCCACAGCGGAAGCGUUCGCGUCGCAGCCCCUGUCAGAUUCUGGUGAAUCUGCGAAUUCUGCUGUAUAUCUC [A2G A18G A28G] gave a self-cleavage of 0.58.
In the case of UGACAGGGGGCCACAGCGGAAGCGUUCACGUCGCAGCCCCUGUCAGGUUCUGGUGAAUCUGCGAAUUCUGCCGUAUAUCUC [A2G A18G A47G U72C], the self-cleavage is reported as 0.18.
With UGACAGGGGGCCACAGCGGAAGCGUUCACGUCGCAGCCUCUGUCAGAUUCUGGUGUAUCUGCGAAUUCUGCUGUAUAUCUC [A2G A18G C39U A56U] the self-cleavage was 0.38.
In the case of UGACAGGGGGCCACAGCGGAAGCGUUCACGUCGCAGCCCCUGUAAGAUUCUGGAGAAUCUGCGAAUUCUGCCGUAUAUCUC [A2G A18G C44A U54A U72C], the self-cleavage is reported as 0.08.
In the case of UGACAGGGGGCCACAGCGGAAGCGUUCACGUCGCAGCCCCUGACAGAUUCUGGUGAAUCUGCGAAUUCUGCUGUAUAUCUC [A2G A18G U43A], the self-cleavage is reported as 1.28.
UGACAGGGGGCCACAGCGGAAGCGUUCACGUCGCAGCCCCUGUCAGAUUCUGGUGAAUCUGCGAAUACAGCUGUAUACCUC [A2G A18G U67A U69A U78C] showed a self-cleavage of 0.29.
In the case of UGACAGGGGGCCACAGCGGAAGCGUUCACGUCGCAGCCCCUGUCAGAUUCUGGUGAAUCUGCGAAUUCUGCUGUAUAUCCC [A2G A18G U80C], the self-cleavage is reported as 0.56.
Variant UGACAGGGGGCCACAGCUGAAGCGUUCACGUCGCAGCCCCUGUCUGAUUCCGGCGAACCUGCGAAUUCUGCUGUAUACCUC [A2G A18U A45U U51C U54C U58C U78C] has a self-cleavage of 0.
For UGACAGGGGGCCACAGCUGAAGCGUUCACGUCGCAGCCCCUGUCAGAUUCUGGUGAAUCUGCGAAUUCUGCUGUAUAUCUU [A2G A18U C81U], the self-cleavage was 0.56.
Variant UGACAGGGGGCCACAGCUGAAGCGUACACGUCGCAGCCCCUGUCAGAUUCUGGUGGAUCUGCGAAUUCUGCUGUAUAUCUC [A2G A18U U26A A56G] has a self-cleavage of 0.11.
Work on UGACAGGGGGCCACAGCUGAAGCGUACACGACGCAGCCCCUGUCAGAUUCUGGUGAAUCUGCGAAUUCUGCUGUAUAUCUC [A2G A18U U26A U31A] yielded a self-cleavage of 0.25.
UGACAGGGGGCCACAGCUGAAGCGUUCACGCCGCAGCCCCUGUCAGAUUCUGGUGGAUCCGCGAAUCCUGCUGUAUAUCUC [A2G A18U U31C A56G U60C U67C] showed a self-cleavage of 0.02.
Variant UGACAGGGGGCCACAGCUGAAGCGUUCACGUCGCAGCCCCAGUCUGAUUCUGGCGUAUCUGCGAAUUCAGCUGUAUAUCUC [A2G A18U U41A A45U U54C A56U U69A] has a self-cleavage of 0.07.
For UGACAGGGGGCCACAGCUGAAGCGUUCACGUCGCAGCCCCAGUCAGAUUCUGGUGAAUCUGCGAACUCUGCUGUAUGUCUC [A2G A18U U41A U66C A77G], the self-cleavage was 0.26.
UGACAGGGGGCCACAGCUGAAGCGUUCACGUCGCAGCCCCUGUCAGAUUCUGGCGAAUCUGCGAAUUCUACAGUAUAUCUC [A2G A18U U54C G70A U72A] showed a self-cleavage of 0.08.
Work on UGACAGGGGGCCACAGCAGCAGCGUUCACGUCGCGGCACCAGUCAGAUUCUGGUGAAUCUGCGAAUUCUGCUGCAUAUCUC [A2G A20C A35G C38A U41A U74C] yielded a self-cleavage of 0.27.
